Hit rate of the full screen: of about 270,000 compounds, about 5,800 (2.1%) were called active. Inconclusive results, whose numbers are uncertain, are shown with a selection of clear calls. Calls come from the whole dose curve; as a rule, active = well fitted inhibition curve with a large enough effect; inconclusive = small, poorly fitted or top-dose-only effect; inactive = flat fitted curve, though single readings scatter. Potencies beside an inconclusive call are fits to weak or partial responses and may not hold up.
biological target: Microtubule-associated protein tau (Homo sapiens) (UniProt P10636); test: qHTS for Inhibitors of Tau Fibril Formation, Thioflavin T Binding; details: recombinant tau K18 P301L (four-repeat tau fragment), heparin-induced fibrillization, ThT fluorescence; series mostly up to 57.4 µM; note: nearly all actives have a fitted effect of over 55% in size
Summary of the method: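 Aggregation was driven by heparin (20 uM final) acting on recombinant tau […] bearing P301L in 100 mM sodium acetate pH 7; fibrils were detected with Thioflavin T.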
Potency is the fitted concentration of half-maximal effect; tags give direction and shape of the fitted curve.

Sequence of UniProt P10636 (P10636 whole entry, looked up, the tested form may be a part): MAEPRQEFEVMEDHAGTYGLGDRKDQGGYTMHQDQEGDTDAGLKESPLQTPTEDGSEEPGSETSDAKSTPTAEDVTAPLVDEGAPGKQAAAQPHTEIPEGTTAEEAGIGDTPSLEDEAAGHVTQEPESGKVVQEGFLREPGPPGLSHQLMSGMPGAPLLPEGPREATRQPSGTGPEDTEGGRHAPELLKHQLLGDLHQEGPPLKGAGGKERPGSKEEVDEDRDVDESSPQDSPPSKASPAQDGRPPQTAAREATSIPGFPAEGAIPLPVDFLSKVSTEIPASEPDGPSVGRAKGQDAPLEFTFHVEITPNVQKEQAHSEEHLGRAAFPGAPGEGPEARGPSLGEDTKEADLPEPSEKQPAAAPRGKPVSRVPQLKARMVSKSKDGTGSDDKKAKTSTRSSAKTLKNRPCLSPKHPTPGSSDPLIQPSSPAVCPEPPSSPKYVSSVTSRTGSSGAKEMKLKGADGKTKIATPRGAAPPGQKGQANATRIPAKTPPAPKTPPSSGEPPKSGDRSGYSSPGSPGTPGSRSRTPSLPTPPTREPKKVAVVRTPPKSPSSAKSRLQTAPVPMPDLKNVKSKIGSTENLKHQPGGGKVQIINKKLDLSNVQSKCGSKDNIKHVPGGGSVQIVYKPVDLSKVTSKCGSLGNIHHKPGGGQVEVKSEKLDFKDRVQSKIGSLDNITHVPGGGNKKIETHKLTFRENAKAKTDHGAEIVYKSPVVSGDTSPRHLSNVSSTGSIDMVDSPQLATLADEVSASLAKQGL

Row | Structure (SMILES) | Potency
1 | CCC(c1nnnn1C(C)(C)CC)N(CCN1CCOCC1)Cc1cc2cc(C)ccc2[nH]c1=O (stereo not drawn) | inconclusive: 35.5 µM [inhibitor, single point]
2 | Cc1ccc(S(=O)(=O)CCC(=O)c2ccc(O)cc2O)cc1 | inactive
3 | O=C(Cn1c(=O)n(-c2ccccc2)c(=O)c2c3c(sc21)CCCC3)Nc1cccc(F)c1 | inconclusive: 25.1 µM [activator, single point]
4 | O=C(Nc1ccccc1)[C@@H]1[C@@H]2C(=O)N(c3ccc(F)cc3)C(=O)[C@@H]2[C@H]2C=CC=NN21 | inconclusive: 25.1 µM [inhibitor, partial curve, poor fit]
5 | Cc1[nH]n(-c2cccc3ccccc23)c(=O)c1/C=N/c1sc2c(c1C#N)CCC2 | inconclusive: 17.8 µM [inhibitor, partial curve]
6 | Cc1ccc(CSc2nnc(-c3ccncc3)n2N)cc1 | inconclusive: 28.2 µM [inhibitor, single point]
7 | O=C(Nc1ccccc1)N1CC=C(c2ccc(F)cc2)CC1 | inconclusive: 7.94 µM [inhibitor, single point]
8 | O=C(COc1ncnc2sccc12)NC1CCCc2ccccc21 (stereo not drawn) | inactive
9 | CC1=CC(C#N)(C#N)C(C#N)(C#N)C(c2ccccc2)N1 (stereo not drawn) | inconclusive: 35.5 µM [inhibitor, single point]
10 | O=c1cc(-c2c(F)c(F)c(F)c(F)c2F)oc2c(F)c(F)c(F)c(F)c12 | active: 14.1 µM
11 | Clc1ccc(CSc2ccc(-c3cccnc3)nn2)cc1 | inconclusive: 8.91 µM [inhibitor, full curve]
12 | CN(C)c1ccc(NC(=O)Cn2c(=O)n(Cc3ccccc3)c(=O)c3ccccc32)cc1 | inconclusive: 25.1 µM [inhibitor, partial curve, poor fit]
13 | COC(=O)c1cc(-c2ccc(C)cc2)n[nH]1 | inconclusive: 12.6 µM [inhibitor, partial curve, poor fit]
14 | NC(=S)COc1ccccc1 | inactive
15 | CCCN(CCC)CC(O)Cn1cc(/C=C/C(=O)c2ccccc2)c2ccccc21 (stereo not drawn) | inconclusive: 35.5 µM [inhibitor, single point]
16 | Cn1c(SCC(=O)Nc2ccccc2F)nnc1-c1cc2ccccc2o1 | inconclusive: 1.26 µM [inhibitor, full curve]
17 | COc1ccc(CCN2C(=O)c3[nH]nc(-c4ccccc4O)c3C2c2ccc(O)c(OC)c2)cc1 (stereo not drawn) | inconclusive: 28.2 µM [inhibitor, partial curve]
18 | O=C(CCn1cnc(-c2ccccc2)c1-c1ccccc1)N/N=C/c1ccc(O)cc1 | inactive
19 | CCN=C1NN=C(c2cc(C)n(CCc3ccccc3)c2C)CS1 | inconclusive: 17.8 µM [inhibitor, partial curve]
20 | CC1CC(C)CN(c2cc(N(C)CCO)c([N+](=O)[O-])c3nonc23)C1 (stereo not drawn) | inconclusive: 20 µM [inhibitor, partial curve]
21 | O=C(O)c1cc(N/N=C/c2ccc(N3CCOCC3)cc2)ccc1Cl | inconclusive: 4.47 µM [inhibitor, partial curve]
22 | O=C(Cc1ccccc1)N/N=C/c1ccc2cccc(O)c2n1 | inconclusive: 14.1 µM [inhibitor, partial curve]
23 | O=C(CCCc1ccccc1)N1CCN(c2ccc([N+](=O)[O-])cc2)CC1 | active: 2.24 µM

Row | Structure (SMILES) | Potency
24 | Clc1ccc(N/N=C/c2cccs2)nn1 | inconclusive: 12.6 µM [inhibitor, partial curve]
25 | CC1=N/C(=C/c2ccco2)C(=O)O1 | inconclusive: 39.8 µM [inhibitor, single point]
26 | Cc1cc(Cl)ccc1OCCCC(=O)N1CCCc2ccccc21 | inconclusive: 39.8 µM [inhibitor, single point]
27 | CC1=C(C(=O)Nc2ccc(C)cc2)C(c2ccccc2Cl)n2nnnc2N1 (stereo not drawn) | inactive
28 | CCOc1ccc(CNC(=O)COc2cc(=O)n(C)c3ccccc23)cc1 | inactive
29 | Cc1cccc(C)c1-n1c(C)cc(/C=N/NC(N)=S)c1C | inconclusive: 31.6 µM [inhibitor, partial curve, poor fit]
30 | O=C(CCl)Nc1ccccc1C(=O)Nc1ccc2c(c1)OCO2 | inconclusive: 20 µM [inhibitor, single point]
31 | COc1ccc(C(=O)/C=C/c2ccc(O)cc2)c(O)c1CC=C(C)C | active: 25.1 µM
32 | COc1ccc(NC(=O)C(c2ccccn2)N(C(C)=O)c2ccc(C)cc2)cc1 (stereo not drawn) | inactive
33 | COCCCNC(=O)CN1C(=O)c2c(c3ccccc3n2C)C1c1ccc(OC)cc1 (stereo not drawn) | inconclusive: 7.94 µM [activator, single point]
34 | COc1ccc(-c2noc(CSCC(=O)Nc3ccc(C)cc3Br)n2)cc1OC | inconclusive: 20 µM [inhibitor, single point]
35 | COc1cc(C(=O)NCc2ccc3c(c2)CCN3C(=O)c2ccncc2)cc(OC)c1OC | inactive
36 | NC(=O)c1cnn(Cc2ccc(Cl)cc2)c1N | inactive
37 | Cn1c(CNc2ccccc2O)nc2ccccc21 | inconclusive: 17.8 µM [inhibitor, partial curve]
38 | Fc1ccc(CNc2nc3c(-c4ccc(F)cc4)nnn3c3ccccc23)cc1 | inactive
39 | CCSc1nc(C2CC2)cc(-c2ccco2)c1C#N | inconclusive: 28.2 µM [inhibitor, partial curve, poor fit]
40 | COc1ccc(-c2csc(C)n2)cc1Br | inconclusive: 14.1 µM [inhibitor, partial curve]
41 | C=CCn1c(=O)[nH]c2cc(C(=O)N3CCN(c4cccc(Cl)c4)CC3)ccc2c1=O | inconclusive: 17.8 µM [inhibitor, partial curve]
42 | O=C(Nc1nnc(SCc2cccc3ccccc23)s1)C1COc2ccccc2O1 (stereo not drawn) | inconclusive: 17.8 µM [inhibitor, partial curve, poor fit]
43 | Cc1cc(C(=O)Cn2nc(C(=O)O)c3ccccc3c2=O)c(C)n1CCc1ccc(Cl)cc1 | inconclusive: 12.6 µM [inhibitor, partial curve]
44 | Cc1ccc2cc(CN(CC3CCCO3)C(=S)NCc3ccco3)c(=O)[nH]c2c1 (stereo not drawn) | inconclusive: 39.8 µM [inhibitor, partial curve]
45 | COc1ccc(N2CCN(C(=O)Cn3cnc4c3c(=O)n(C)c(=O)n4C)CC2)cc1 | inactive
46 | Cc1cc(C(=O)N/N=C/c2c(C)nn(-c3ccccc3)c2C)n[nH]1 | inconclusive: 3.16 µM [inhibitor, full curve]

Row | Structure (SMILES) | Potency
47 | CCOC(=O)C(CSCC(=O)c1ccc(Br)cc1)NC(=O)OC(C)(C)C (stereo not drawn) | inconclusive: 28.2 µM [inhibitor, partial curve]
48 | CCC(=O)N1CCc2cc(Br)cc(S(=O)(=O)CCC(=O)NCc3ccccc3)c21 | inactive
49 | N#Cc1c(Nc2ccccc2)sc(C(=O)c2ccc(F)cc2)c1N | inconclusive: 14.1 µM [inhibitor, partial curve]
50 | COC(=O)CSc1nc2ccc(NC(=O)CSc3nnnn3Cc3ccccc3)cc2s1 | inconclusive: 22.4 µM [inhibitor, partial curve]
51 | O=C(/C=C\c1ccco1)Oc1cccc2cccnc12 | inconclusive: 14.1 µM [inhibitor, partial curve]
52 | COc1ccc(-n2c(C)c([N+](=O)[O-])c3ccc(O)c(CN(C)C)c32)cc1 | inactive
53 | CCCCN(C)C(=O)Cc1c(OC)ccc2cc(Br)ccc12 | inconclusive: 20 µM [inhibitor, single point]
54 | COc1cccc2[nH]c3c(N4CCc5ccccc5C4)ncnc3c12 | inconclusive: 2.82 µM [inhibitor, full curve]
55 | CCSc1nnc(NC(=O)C(C)(C(F)(F)F)C(F)(F)F)s1 | inactive
56 | COc1ccc(CNC(=O)CCc2c(C)nc3c(c2C)c(=O)n(C)c(=O)n3C)cc1 | inactive
57 | CN(C)S(=O)(=O)c1cccc(NC(=O)CSc2ncnc3ccccc23)c1 | inconclusive: 25.1 µM [inhibitor, partial curve, poor fit]
58 | O=C(CSc1nc2ccccc2n1Cc1ccc(F)c(Cl)c1)N1CCN(c2ccc(F)cc2)CC1 | inactive
59 | O=C(Nc1cccc2c1C(=O)NC2=O)c1ccc(S(=O)(=O)N2CCCC2)cc1 | inconclusive: 3.55 µM [inhibitor, full curve, poor fit]
60 | COc1ccc(-c2cnc(SCC(=O)Nc3ccc4c(c3)OCO4)n2Cc2ccco2)cc1 | inconclusive: 25.1 µM [inhibitor, single point]
61 | Cc1ccc(-c2nnc(Nc3ccc(C(N)=O)cc3)c3ccccc23)cc1S(=O)(=O)N1CCCCC1 | inactive
62 | O=c1c2c(nc3n1CCCCC3)sc1c(O)cccc12 | inconclusive: 35.5 µM [inhibitor, partial curve, poor fit]
63 | CC(=O)N1CC[C@@H]2CC(=O)CC[C@@H]21 | inactive
64 | CCOC(=O)c1cc(-c2ccccc2)sc1N | inconclusive: 15.8 µM [inhibitor, partial curve]
65 | O=C(CN1CCN(C2CCCCC2)CC1)c1ccc2cc[nH]c2c1 | inconclusive: 25.1 µM [inhibitor, partial curve, poor fit]
66 | CC(=O)OC1CC(O)C(C)(C)C2CC(OC(C)=O)[C@]3(C)C(CC[C@@]4(C)C(c5ccoc5)OC(=O)C5OC534)[C@]12C (stereo partly drawn) | inconclusive: 28.2 µM [inhibitor, partial curve, poor fit]
67 | O=C(Nc1c(C(=O)N2CCN(c3ccc(F)cc3)CC2)oc2ccccc12)c1ccco1 | inconclusive: 39.8 µM [inhibitor, single point]
68 | Cc1ccc2sc(N3CCN(C(=O)C4COc5ccccc5O4)CC3)nc2c1C (stereo not drawn) | inconclusive: 22.4 µM [inhibitor, single point]

From PubChem BioAssay AID1460 (National Center for Advancing Translational Sciences (NCATS), 2008)
